Data from PMC4336329 (PLoS ONE, 2015).
The campaign covered roughly 310,000 compounds. About 14,000 (4.5%) showed an effect of 50% or more. Effects have a minus sign here. This is one part of the list.

molecular target: human ether-à-go-go-related gene (hERG) potassium channel (human, UniProt Q12809); experiment: primary screen, population patch clamp on CHO cells stably expressing hERG
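Further: peak tail current of the secondary pulse compared with the same well before compound.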

human ether-à-go-go-related gene (hERG) potassium channel, sequence (Q12809 whole entry, looked up): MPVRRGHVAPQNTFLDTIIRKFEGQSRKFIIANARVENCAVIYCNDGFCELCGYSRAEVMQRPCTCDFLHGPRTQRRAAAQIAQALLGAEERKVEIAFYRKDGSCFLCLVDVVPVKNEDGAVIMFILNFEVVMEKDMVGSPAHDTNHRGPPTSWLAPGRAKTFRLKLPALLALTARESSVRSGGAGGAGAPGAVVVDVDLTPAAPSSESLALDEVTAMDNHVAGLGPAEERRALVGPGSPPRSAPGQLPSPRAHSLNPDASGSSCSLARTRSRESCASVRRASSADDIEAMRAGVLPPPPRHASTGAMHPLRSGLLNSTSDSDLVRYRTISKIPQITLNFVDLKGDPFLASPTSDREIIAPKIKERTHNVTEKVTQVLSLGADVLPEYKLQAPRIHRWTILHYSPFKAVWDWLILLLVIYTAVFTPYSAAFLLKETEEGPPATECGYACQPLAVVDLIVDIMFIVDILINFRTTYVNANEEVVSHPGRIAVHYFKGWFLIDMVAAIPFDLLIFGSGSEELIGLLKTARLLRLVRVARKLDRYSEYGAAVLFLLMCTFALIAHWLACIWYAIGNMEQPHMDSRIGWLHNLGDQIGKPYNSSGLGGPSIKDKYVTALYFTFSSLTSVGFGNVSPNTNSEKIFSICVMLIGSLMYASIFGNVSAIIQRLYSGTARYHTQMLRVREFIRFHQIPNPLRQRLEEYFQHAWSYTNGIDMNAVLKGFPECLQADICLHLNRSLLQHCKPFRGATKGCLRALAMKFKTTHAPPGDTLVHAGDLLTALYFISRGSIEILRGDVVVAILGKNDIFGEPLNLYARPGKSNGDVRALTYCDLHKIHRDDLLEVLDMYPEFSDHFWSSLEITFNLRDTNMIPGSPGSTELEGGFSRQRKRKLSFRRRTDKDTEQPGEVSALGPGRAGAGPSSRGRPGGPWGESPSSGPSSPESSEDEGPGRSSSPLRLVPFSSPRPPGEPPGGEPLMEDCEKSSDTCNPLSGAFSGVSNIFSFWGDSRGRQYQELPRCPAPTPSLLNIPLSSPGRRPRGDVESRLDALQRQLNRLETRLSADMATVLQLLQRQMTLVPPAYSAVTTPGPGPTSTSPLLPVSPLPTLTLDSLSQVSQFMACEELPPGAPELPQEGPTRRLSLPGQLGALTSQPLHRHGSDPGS

In order of falling “hERG current change (%, negative = inhibition) at 10uM” value:
1. Cc1noc(C(=O)N(C)c2ccccc2)c1Cl  27.2%
2. O=C(CSc1cc(Cl)ccc1Cl)NC1CCCc2ccccc21 (stereo not drawn)  20.9%
3. Cc1nn(CC(=O)NCCCN2CCCCC2)c(=O)c2cccn12  19.5%
4. COc1ccc(S(=O)(=O)NCC2CCCO2)cc1NC(=O)c1ccccc1F (stereo not drawn)  19.1%
5. CCN(CC)CCOC(=O)c1ccc(N/C=C(/C#N)c2nc(-c3ccc(OC)cc3)cs2)cc1  17.9%
6. CCn1c(SCC(=O)NC2CCCCC2)nnc1C(CO)NC(=O)c1ccccc1 (stereo not drawn)  16.9%
7. COCc1cc(=O)oc2cc(NS(=O)(=O)c3ccc(C)cc3)ccc12  16.6%
8. COc1cc(NC(=O)c2ccc(=O)[nH]n2)cc(OC)c1OC  16.4%
9. CCN(C(=O)COC(=O)CCOc1ccccc1)c1c(N)n(Cc2ccccc2)c(=O)[nH]c1=O  16.1%
10. Cc1ccnc(NC(=O)c2cc3cc(F)ccc3s2)c1  15.8%
11. Cc1ccc(N(C(=O)CNC(=O)c2ccco2)C(C(=O)NC2CCCC2)c2ccncc2)c(C)c1 (stereo not drawn)  14.6%
12. CN1CCN(CC(=O)c2ccccc2F)CC1.O=C(O)C(=O)O  14.2%
13. O=C(O)Cn1nc(-c2ccccc2)cc1-c1ccccc1  13.9%
14. Cc1cc(C)cc(NC(=O)NC(C)C2CCCO2)c1 (stereo not drawn)  13.3%
15. CCS(=O)(=O)N1Cc2ccccc2CC1C(=O)Nc1nc(C)cs1 (stereo not drawn)  13.2%
16. COc1ccc(C(=O)N2CCCC(C(N)=O)C2)cc1S(=O)(=O)N1CCOCC1 (stereo not drawn)  13.1%
17. CCCc1nc(-c2cc3ccccc3[nH]c2=O)no1  12.9%
18. CCCCn1c(N)c(N(CC)C(=O)c2cccc(F)c2)c(=O)[nH]c1=O  12.7%
19. Cc1cc(C(=O)O)c(C)n1Cc1ccncc1  12.6%
20. O=C(CCC(=O)Nc1ccc(F)cc1)N/N=C/c1ccc(O)cc1  12.4%
21. O=C(N/N=C/c1cc([N+](=O)[O-])ccc1O)c1cc(-c2ccccc2)nc2ccccc12  12.3%
22. COc1cc(C(c2c(C)[nH][nH]c2=O)c2c(C)[nH][nH]c2=O)cc([N+](=O)[O-])c1O  11.3%
23. COc1cccc(OCCNc2cc(Cl)ccc2[N+](=O)[O-])c1  11.3%
24. N#CC1(NC(=O)COC(=O)c2ccc(Cl)nc2)CCCCC1  10.9%
25. Cc1ccc(C)c(N2CCN(C(=O)C3CCC3)CC2)c1  10.1%
26. O=c1cc(N2CCc3ccccc32)[nH]c(=O)n1Cc1ccc(F)cc1  9.46%
27. Nc1ccc(N2CCCCC2)cc1N1CCCCC1  9.08%
28. COc1ccc(C2=NOC(C(=O)NCc3ccccn3)C2)cc1 (stereo not drawn)  9.02%
29. Cn1nnnc1SCc1ccc(C(=O)Nc2ccccc2F)cc1  8.72%
30. CCCN(Cc1ccc(C)cc1)C(=O)c1ccc(CNS(=O)(=O)c2ccc(C(C)=O)cc2)cc1  8.56%
31. CC(C)(C)c1nc2c(s1)CCc1onc(-c3ccc(Cl)cc3)c1-2  8.27%
32. O=C(O)Cc1ccc(OCc2ccc(Cl)nc2)cc1  7.98%
33. O=C(CSC1=NS(=O)(=O)c2cc(F)ccc2N1)Nc1ccccc1  7.5%
34. Cc1cc2occ(CC(=O)NC3=NCCS3)c2cc1C(C)C  7.45%
35. Cn1c(=O)c(N=O)c(N)n(Cc2ccccc2)c1=S  7.27%
36. COc1ccccc1CN(C)C(=O)CSc1nnc(C2CC2)n1C1CC1  6.78%
37. CCOC(=O)c1sc(=NC(=O)c2ccc(Cl)s2)n(C)c1C  6.74%
38. CCC/C(=N/NC(=O)c1cccc(Cl)c1)c1ccccc1  6.71%
39. COc1ccc(S(=O)(=O)N2CCN(CC(=O)c3[nH]c(C)c(C(C)=O)c3C)CC2)cc1OC  6.3%
40. Cc1cccc(S(=O)(=O)NC(Cc2c[nH]c3ccccc23)C(=O)O)c1 (stereo not drawn)  6.03%
41. COc1ccc(NC(=S)NCCCN2CCCC2)cc1  5.95%
42. COC(=O)c1cccc(Nc2ccc([N+](=O)[O-])cn2)c1  5.91%
43. CCC(CC)C(=O)Nc1cccc(/C(C)=N\NC(=O)c2ccc(C)s2)c1  5.9%
44. O=C(Nc1cccc(-c2csc(Nc3ccc(Cl)cc3)n2)c1)c1cc([N+](=O)[O-])cc(C(F)(F)F)c1  5.87%
45. Cc1nn(-c2ccc(C(=O)OC(C)C)cc2)c(C)c1[N+](=O)[O-]  4.98%
46. Cc1ccc(NC(=O)CSc2nc3[nH]ncc3c(=O)[nH]2)cc1Cl  3.67%
47. CCOc1ccc(NC(=O)CN(C)C(=O)CC2CCCC2)cc1OCC  2.43%
48. Cc1cc(Oc2ccccc2)nc(SCC(=O)Nc2ccc(Cl)c(Cl)c2)n1  2.06%
49. CSc1cc(-c2ccccc2)n(Cc2ccc(Cl)cc2Cl)c(=O)c1C#N  1.66%
50. CCOC(=O)c1c(C)oc2ccc(O)cc12  1.56%
51. CCOC(=O)Cc1csc(SCC(=O)N(CC(C)C)c2c(N)n(Cc3ccccc3)c(=O)[nH]c2=O)n1  1.41%
52. CC12CCC(=O)N1C(C(=O)NNC(=O)c1ccccc1F)CS2 (stereo not drawn)  0.435%
53. COCCNC(=O)C(c1ccc(C)cc1)N(Cc1cccs1)C(=O)CCC(=O)Nc1ccccn1 (stereo not drawn)  -0.699%
54. CC(=O)Nc1ccc(NC(=O)C2CCCN2C(=O)Nc2ccc(F)c([N+](=O)[O-])c2)cc1 (stereo not drawn)  -1.17%
55. CC1CC(C)CN(S(=O)(=O)c2ccc(C(=O)Nc3nnc(C4CC4)o3)cc2)C1 (stereo not drawn)  -1.23%
56. Cc1ccc2cc(C3CC(c4ccco4)=NN3C(=O)CCC(=O)O)c(Cl)nc2c1 (stereo not drawn)  -1.49%
57. S=C(NCCc1ccccc1)Nc1ccccc1Cl  -2.31%
58. CN(c1ccc(OCC(=O)NC2=NCCS2)cc1)S(=O)(=O)c1ccc(F)cc1  -2.78%
59. CC(C)NC(=O)Nc1cccs1  -3.62%
60. COCCCNC(=S)N1CCN(c2nc3ccccc3s2)CC1  -3.64%
61. CC(=O)c1ccc(C(C)(C)c2ccc(C(C)=O)s2)s1  -4.83%
62. Cc1ccc(S(=O)(=O)N(C)C)cc1NC(=S)Nc1cccc2ccccc12  -5.33%
63. COc1ccc(OCc2cc(C(=O)N[C@H]3CCCCNC3=O)no2)c(Cl)c1  -5.35%
64. CCCCn1c(N)c(NCCC(C)C)c(=O)[nH]c1=O  -5.59%
65. NC(=O)c1cc2cc(Cl)ccc2o/c1=N/NC(=O)c1cccs1  -11.8%
66. CCN(CC(=O)Nc1ccccc1OC)C(=O)CN1C(=O)NC(C)(c2ccc(C)cc2)C1=O (stereo not drawn)  -14.2%
67. COc1ccccc1N1CCN(C(=O)c2onc(C)c2Cl)CC1  -16.3%
68. O=C(CCn1c2c(c3ccccc31)CCCC2)NNC(=O)c1ccccc1[N+](=O)[O-]  -16.9%
69. COc1ccc(C(=O)Nc2ccc(C3=NNC(=O)CC3C)cc2NC(=O)c2ccc(OC)cc2)cc1 (stereo not drawn)  -18.9%
70. Cc1ccc(N(CC(=O)NCC2CCCO2)S(=O)(=O)c2ccc(Cl)cc2)cc1C (stereo not drawn)  -19%
71. c1ccc(CN2CCN(Cc3nnc(-c4ccccc4)o3)CC2)cc1  -22.1%
72. CCOc1ccc(CN2C(=O)c3ccccc3C2C(=O)NCc2cccnc2)cc1 (stereo not drawn)  -25.1%
73. O=C(CN1CCN(Cc2cccc3ccccc23)CC1)NCCc1ccccc1  -26%
74. O=C(NCCC1=CCCCC1)c1cc(S(=O)(=O)N2CCOCC2)ccc1F  -26.1%
75. Cc1cc2c(cc1S(=O)(=O)Nc1cccc(C)c1C)n(C)c(=O)c(=O)n2C  -26.9%
76. Cc1cc(C)nc(N/N=C/C2=C(N3CCOCC3)C(=C\c3ccc(Cl)cc3)/CC2)n1.Cl  -31.4%
77. COc1ccc(-c2cc(C(=O)N3CCN(C(=O)c4ccco4)CC3)[nH]n2)cc1  -31.6%
78. CCOC(=O)CNC(=S)N(Cc1ccc(C)cc1)Cc1ccc(C)o1  -37.8%
79. CCN(CC(=O)Nc1ccc2c(c1)OCCO2)C(=O)/C=C/c1ccc([N+](=O)[O-])cc1  -39.9%
80. Cc1cc(C)cc(N(CC(=O)NCc2ccco2)S(=O)(=O)c2ccccc2)c1  -40.9%
81. COc1ccc(CC(=O)O/N=C(\N)Cc2ccc([N+](=O)[O-])cc2)cc1  -46.5%
82. CC(C)(C)c1ccc(OCC(O)CN2CCc3ccccc3C2)cc1.Cl (stereo not drawn)  -50.3%
83. O=C(CN1CCN(S(=O)(=O)c2ccc(Br)cc2)CC1)Nc1ccccc1F  -62.5%
84. COc1ccc(CN(CC(=O)NCc2ccco2)C(=O)CNS(=O)(=O)c2ccc(C)cc2)cc1  -63.3%
85. Cc1ccc(C(=O)c2cc([N+](=O)[O-])ccc2N2CCN(C)CC2)cc1  -64.5%
86. CCOC(=O)c1cnc2ccc(OCC)cc2c1NCCN1CCOCC1.Cl  -67.9%
87. CCCCCn1c(SC(C)C(C)=O)nc2c1c(=O)[nH]c(=O)n2C (stereo not drawn)  -92.5%
